Laboratory results taken from patent US20090143279A1 (priority 2007, published 2009).
Like-named read-outs stand apart in the source and are kept apart here.

System: cellular ATP levels
[1] = composite Z-score vs mock-treated (DMSO) wells, Conc 20 μM
[2] = composite Z-score vs DMSO, Conc 20 μM
[3] = composite Z-score vs DMSO wells, Conc 20 μM

Compound | ATP [1] | ATP [2] | also measured
C=C1C[C@]23C[C@@]1(O)CC[C@H]2[C@@]12C=C[C@H](O)[C@@](C)(C(=O)O1)[C@H]2[C@@H]3C(=O)O [gibberellic acid] | 0.413 | – | –
CC(=O)[C@@]1(O)CC[C@H]2[C@@H]3C=C(Cl)C4=CC(=O)[C@@H]5C[C@@H]5[C@]4(C)[C@H]3CC[C@@]21C [cyproterone] | – | 0.856 | –
O=c1[nH]c2ccccc2n1C1CCN(CCCC(c2ccc(F)cc2)c2ccc(F)cc2)CC1 [pimozide] | – | −0.464 | ATP (composite Z-score vs DMSO, Conc 8.66 μM): −0.856
Cc1onc(-c2ccccc2)c1C(=O)N[C@@H]1C(=O)N2[C@@H]1SC(C)(C)[C@@H]2C(=O)[O-].[Na+] [oxacillin sodium] | – | −0.038 | –
C=CC(C1=CC(=O)C(OC)=C(OC)C1=O)c1ccccc1 (stereo not shown) [3,4-dimethoxydalbergione, reference compound] | −5.364 | – | –
COC1CC(C)C2OC2CC(C)C2CC(C)(C)C12 (stereo not shown) | – | – | ATP (normalized composite Z-score vs mock-treated (DMSO) wells, Conc 20 μM): 0.358
CC(=O)O[C@@H]1C=C[C@]2(C)C(C[C@@H](OC(C)=O)[C@]3(C)C4=CC(=O)O[C@H](c5ccoc5)[C@@]4(C)CCC23)C1(C)C (stereo partly shown) [deoxygedunol acetate] | 0.032 | – | –
Cc1cc(=O)c2c(O)c3c(cc2o1)OC(C)(C)CC3 [dihydrospatheliachromene] | 0.342 | – | –
O[C@H]1[C@H]2c3cc4c(cc3CN3CCC(=C[C@@H]1O)[C@H]23)OCO4 [Lycorine, reference compound] | – | 0.198 | –
C=C(C)[C@@H]1[C@H]2OC(=O)[C@@H]1[C@]1(O)C[C@H]3O[C@]34C(=O)O[C@H]2[C@]14C [picrotoxinin] | – | – | ATP [3]: 0.141
CC1=C2C(=CO[C@H](C)[C@H]2C)C(O)=C(C(=O)O)C1=O [citrinin] | – | – | ATP [3]: 0.637
CC1(C)C(=O)C=C[C@@]2(C)C1=C(O)C(=O)[C@]1(C)[C@@H]2CC[C@@]2(C)[C@H](c3ccoc3)C[C@H]3O[C@]321 [cedrelone] | −8.647 | – | –
O=c1cc(-c2ccc(O)cc2)oc2cc(O[C@@H]3O[C@H](CO)[C@@H](O)[C@H](O)[C@H]3O)cc(O)c12 [cosmosiin] | – | −0.890 | –
COC[C@]12CN(C=O)[C@@H]3[C@@H]4[C@H](OC)[C@H]1[C@@]3([C@@H](OC)C[C@H]2O)[C@@H]1C[C@@]2(O)[C@H](OC(=O)c3ccccc3)[C@@H]1[C@]4(OC(C)=O)[C@@H](O)[C@@H]2OC [oxonitine] | 0.116 | – | –
NCC[C@H](O)C(=O)N[C@@H]1C[C@H](N)[C@@H](O[C@H]2O[C@H](CN)[C@@H](O)[C@H](O)[C@H]2O)[C@H](O)[C@H]1O[C@H]1O[C@H](CO)[C@@H](O)[C@H](N)[C@H]1O [amikacin] | – | −0.527 | –
